Results published in PubChem BioAssay AID1794842 (National Center for Advancing Translational Sciences (NCATS), 2023).
Out of some 2,800 compounds screened, fewer than 10 were called active. Calls follow the shape of the dose curve; as a rule, active = well fitted curve in the direction sought with a large enough effect; inconclusive = small, poorly fitted or top-dose-only effect, or another doubt; inactive = no such curve, though single readings can be large or run the other way. The list shows a part of the results.

target: Metallo-beta-lactamase type 2 (Klebsiella pneumoniae) (UniProt C7C422); test: qHTS to identify inhibitors of the New Delhi Metallo-beta-lactamase (NDM): Meropenem screen against the machine-based learning selections.; also: % of control where 0% means no effect; conditions: Purified NDM-1, meropenem hydrolysis, absorbance 300 nm; at 38.4 µM (top of the series) unless noted
How it was run: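 NDM-1 (2 nM final) in 50 mM HEPES pH 7.0, 1 uM Zn2SO4, 0.01% Tween20 was preincubated with compounds for >30 min. Nitrocefin (16.7 uM final) was read at 485 nm after 15 min, and meropenem (50 uM final) at 300 nm after 30 min.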

Sequence of UniProt C7C422 (C7C422 whole entry, looked up): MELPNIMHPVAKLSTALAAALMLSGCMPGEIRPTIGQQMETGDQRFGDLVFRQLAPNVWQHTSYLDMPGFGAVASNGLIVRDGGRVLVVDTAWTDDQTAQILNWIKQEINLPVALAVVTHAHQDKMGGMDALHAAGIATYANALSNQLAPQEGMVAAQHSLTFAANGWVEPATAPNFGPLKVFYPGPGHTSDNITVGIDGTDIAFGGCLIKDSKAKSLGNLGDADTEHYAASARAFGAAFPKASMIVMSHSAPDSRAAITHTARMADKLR

Activity change, negative = inhibition, inactive:
CC1=C[C@@H](CNC(=O)c2ccc(F)cc2)[C@H](C(C)C)C[C@H]1CC(=O)N1CCN(C)CC1 -2.02% [at 57.5 µM]
O=C1Nc2ccc(/C=C/c3ccccc3)cc2C(=O)N2CC[C@H](NS(=O)(=O)c3cccs3)[C@@H]12 3.88%
O=C(O)c1cccc(CN2CCN(c3ccc4nccn4n3)CC2)n1 52.5%
NC(=O)C1CCC(=O)N1C1CCNCC1 (centres undefined) -0.0837%
Cn1nc(C(=O)Nc2ccc3c(c2)C(=O)N2CCC[C@H]2C(=O)N3)c2ccccc21 3.53%
CCCCCC(=O)Nc1nc2c(s1)C[C@@H]1[C@](C)(CO)[C@H](O)CC[C@@]1(C)[C@@H]2CC(=O)NCc1ccccc1 0.525%
O=c1cc(-c2ccccn2)oc2c(-c3cccc(CO)c3)nccc12 19.2% [at 57.5 µM]
C[C@@H]1CN(c2cc(C3CC3)ncn2)C[C@@]1(O)C1CCC1 3.45%
Cn1ccc2c(C(=O)NCc3cccnc3)nc(-c3cccc(O)c3)cc21 1.23% [at 57.5 µM]
O=C(Nc1ccc(F)cc1)Nc1cccc(-c2ccc(N3CCOCC3)nn2)c1 7.76%
Cc1ccc(-c2noc([C@@H]3Cc4nc[nH]c4CN3C(=O)CCC(=O)O)n2)cc1 14.5% [at 57.5 µM]
Cc1nc([C@@H]2CN(S(=O)(=O)c3ccc4c(c3)CCC4)C[C@H]2C(N)=O)n[nH]1 -0.16%
O=C(c1ccccc1F)N1CCCC(c2nn[nH]n2)C1 (centres undefined) -0.378%
CC1=C[C@@H](CNCCN(C)C)[C@H](C(C)C)C[C@H]1Cc1nnc(-c2ccc(C)cc2)o1 -3.5% [at 57.5 µM]
CN(C)C[C@@H]1CN(Cc2ccccn2)C[C@H]1NS(=O)(=O)c1cccc(C#N)c1 8.54%
OC[C@@H]1O[C@H](CNCc2ccc(F)cc2)[C@H](N2CCN(c3ccccc3)CC2)[C@@H]1O 61.8%
O=C(c1nc2ccccc2[nH]1)N1CCNc2cnc(Nc3ccc(-n4ccnc4)cc3)nc2C1 37.1%
O=C(NC1CCCc2nc(N3CCC(CO)CC3)ncc21)c1ccccn1 (centres undefined) 2.04%
COc1ccccc1-c1cc(C(=O)NC(C)C)c2cnn(C)c2n1 3.23% [at 57.5 µM]
CC1=C[C@@H](CN(C)CCN(C)C)[C@H](C(C)C)C[C@H]1Cc1nnc(-c2ccccc2)o1 1.96% [at 57.5 µM]
CCN(CC)C(=O)[C@@H]1CCC[C@@H](NC(=O)Nc2c(C)noc2C)CN(C)C(=O)C1 -0.0378% [at 57.5 µM]
COc1ccc(Nc2cc3c(cn2)CN(CCc2ccccc2)CCN3)cc1 -0.503% [at 57.5 µM]
OC1(CN2CCN(c3nccs3)CC2)CCCNC1 (centres undefined) 75%
Cc1cc(C)c(CNC(=O)c2nc(-c3cccc(O)c3)cc3[nH]ccc23)c(=O)[nH]1 15.9% [at 57.5 µM]
CC(C)CN1C(=O)COC[C@@H]1[C@H](O)c1ccc(NC(=O)C2CCCC2)cc1 0.319% [at 57.5 µM]
Cc1ncsc1CCC(=O)N[C@@H]1CCOC[C@H]1OCC(=O)O 24.4%
COc1ccc(CN2CCCC(CO)(CC3CC3)C2)c(F)c1 (centres undefined) 2.29%
CC1=C[C@@H](CNc2ccccn2)[C@H](C(C)C)C[C@H]1Cc1nnc(-c2ccc(C)cc2)o1 4.8% [at 57.5 µM]
C=CCC1(C(=O)O)CCCN(Cc2cnc(NCc3ccccc3)nc2)C1 (centres undefined) -1.54%
CCn1cc(-c2ccc(OC)cc2)cc1C(=O)N1CCCCCC1 6.42%
COCc1cc(C[C@@H]2CC[C@H](O)[C@@H](CNS(=O)(=O)c3ccccc3)O2)no1 1.18% [at 57.5 µM]
Cc1cc(C(=O)N[C@@H]2C[C@H](Cn3cc(CN4CCS(=O)(=O)CC4)nn3)[C@@H](O)[C@H]2O)nn1C 40.9%
O=C([C@@H]1C[C@H](Oc2ccccc2)CN1C(=O)c1cccs1)N1CCOCC1 -0.949%
CCc1c(C)nn(CC(=O)N2CCC3(CCNC(=O)CC3)CC2)c1C 0.461%
O=C(O)c1ccc(CC2CCN(C(=O)c3cccc(-n4cccn4)c3)C2)cc1 (centres undefined) -3.18%
Cc1nn(C)c(C)c1CCC(=O)N[C@@H]1CN(c2ncccn2)C[C@H]1CO 1.46%
CCCn1ccc2oc(C)c(C(=O)NCc3ccc(OC)cc3)c2c1=O 3.75%
O=C(NCc1cccc(F)c1)c1cnc2c(c1)N(C(=O)Cc1ccc(O)cc1)CCC2 -3.34% [at 57.5 µM]
CC(=O)N1CCN([C@H]2[C@@H]3OC[C@@H](O3)[C@@H](NCc3ccco3)[C@@H]2O)CC1 5.36% [at 57.5 µM]
Cc1ccnc(N2CCC(c3nnc(-c4ccc(F)cc4)o3)CC2)n1 1.88%
O=c1cc(-c2ccccn2)oc2c(NCc3ccc(F)cc3)nccc12 8.87% [at 57.5 µM]
CCn1nccc1C(=O)NCc1cc(C)cc2c(C)c(-c3ccccc3)[nH]c12 5.32%
C[C@@H](c1ccccc1)N1C(=O)[C@@H]2CN(C(=O)c3ccc(N(C)C)cc3)CCN2C1=O 17.9% [at 57.5 µM]
Cn1ccnc1C(=O)N1CC(c2noc(C3CCCN3CC3CC3)n2)C1 (centres undefined) 0.0609%
Cc1cccc(Nc2nc(N)nc(CN3CCOCC(O)C3)n2)c1 (centres undefined) 28.8%
COCCN1CC2(CCCN(C(=O)CCc3cccc(F)c3)C2)CCC1=O (centres undefined) 3.45%
COc1ccccc1C(=O)N1CC[C@H]2COC(=O)N2c2cc(C)ccc2C1 2.81% [at 57.5 µM]
COc1ccc(CN2CCN(c3nc4ccccc4o3)CC2CCO)cc1C (centres undefined) 0.951%
CS(=O)(=O)c1ccc(CNC[C@H]2Cn3ccnc3CO2)cc1 -1.46% [at 57.5 µM]
